Assay results: PubChem BioAssay AID1347073 (National Center for Advancing Translational Sciences (NCATS), 2019)
About 200 (0.44%) of roughly 45,000 compounds were called active. This list was built around the results that the source calls inconclusive (neither active nor inactive); the mix of calls is not that of the screen. Calls follow the shape of the dose curve; as a rule, active = well fitted activation curve with a large enough effect; inconclusive = small, poorly fitted or top-dose-only effect; inactive = no such curve, though single readings can be large or run the other way. Potencies of inconclusive entries are doubtful fits and often do not repeat.

assay: qHTS of TDP-43 Inhibitors: NCGC Sytravon Library Screen; conditions: yeast TDP-43 toxicity rescue, BacTiter-Glo growth, 24 h; growth rescue (activation): at 46.1 µM (top of the series); also: nearly all actives have a fitted effect of over 55% in size; as to growth rescue (activation): 0% is about no effect
Outline: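 TDP-43-expressing yeast, pregrown in raffinose, seeded at OD600 0.02 in galactose medium with compound for 24 hr at 30 deg C. Growth read by BacTiter-Glo luminescence, so rescue of toxicity appears as activation.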
Potency is read from the fitted curve at half-maximal effect; tags tell the direction and shape of the fitted curve.

Structure (SMILES) | Potency | growth rescue (activation)
Cc1ccccc1SCC(=O)OCC(=O)Nc1sccc1C(N)=O | inconclusive: 20 µM [activator, single point] | –
O=C(c1ccccc1)c1nccc2ccccc12 | inconclusive: 15.8 µM [activator, single point] | –
Oc1c(/C=N/Nc2cccc3cccnc23)ccc2ccccc12 | inconclusive: 12.6 µM [activator, single point] | –
CC(C)(C)c1ccc(OCC(=O)NNC(=S)NC(=O)c2ccccc2[N+](=O)[O-])c(Br)c1 | active: 11.2 µM | –
CN(C)/N=C/c1cc([N+](=O)[O-])ccc1O | inconclusive: 12.6 µM [activator, partial curve, poor fit] | –
Cc1ccc(C(=O)O/N=C/c2c(C)nn(C)c2Cl)cc1 | inconclusive: 11.2 µM [activator, partial curve] | –
O=C(COC(=O)c1ccccc1Br)NCc1ccccc1 | inconclusive: 17.8 µM [activator, single point] | –
COc1ccc(Nc2nc3cc(-c4ccsc4)sc3c(=O)n2C)cc1OC | – | inconclusive: 43.5% [activator]
COc1ccc(COc2ccccc2C(N)=O)cc1F | inconclusive: 12.6 µM [activator, partial curve, poor fit] | –
CN(C)c1ccc(-c2ccnc3c2CC(C)(C(=O)NCc2cccc(Cl)c2)O3)cc1 (centres undefined) | inconclusive: 20 µM [activator, single point] | –
Cn1c(SCC(=O)Nc2sccc2C#N)nnc1C1CC1 | – | inactive: 10.7%
COCCN(C(=S)Nc1cccc(Cl)c1C)C(C)c1ccco1 (centres undefined) | inconclusive: 20 µM [activator, partial curve, poor fit] | –
Cc1cccc(NC(=O)COc2ccc(-c3nn(C)c(=O)c4ccccc34)cc2)c1 | inconclusive: 25.1 µM [activator, partial curve, poor fit] | –
C=CCNC(=S)N(Cc1ccccc1)Cc1ccccc1 | inconclusive: 35.5 µM [activator, single point] | –
C[C@@H](NC(=O)OC(C)(C)C)c1nnc(S(=O)(=O)Cc2ccccc2)o1 | inconclusive: 10 µM [activator, partial curve, poor fit] | –
O=C(Nc1cccc(C(F)(F)F)c1)C1Cc2c(-c3cccc(F)c3)ccnc2O1 (centres undefined) | inconclusive: 35.5 µM [activator, single point] | –
Cn1c(SCC(=O)Nc2cccnc2Cl)nnc1-c1ccco1 | – | inactive: -1.58%
COc1ccc(C)cc1NC(=O)C1CCCN(S(=O)(=O)c2cccs2)C1 (centres undefined) | inconclusive: 8.91 µM [activator, partial curve] | –
CCN1CCN(Cc2c(O)ccc3c2O/C(=C\C=C\c2ccccc2OC)C3=O)CC1 | inconclusive: 17.8 µM [activator, single point] | –
CCN(CC)c1ncnc2c1ncn2[C@H]1CN(Cc2ccc(OC)cc2)C[C@@H](CO)O1 | – | inactive: -12.3%
Cc1cccc(C)c1OCc1nc2c3cnn(-c4ccccc4F)c3ncn2n1 | – | inactive: 8.18%
Cc1cc(NS(=O)(=O)c2ccc(Nc3nc(-c4sc(N)nc4C)cs3)cc2)no1 | inconclusive: 35.5 µM [activator, partial curve, poor fit] | –

Structure (SMILES) | Potency | growth rescue (activation)
CN1c2ccc(C=O)c3c(C=O)ccc(c23)N(C)C1(C)C | inconclusive: 10 µM [activator, partial curve, poor fit] | –
COc1ccc(NC(=O)CSc2cc(C)ccc2C)cn1 | inconclusive: 12.6 µM [activator, partial curve, poor fit] | –
O=C(NCc1ccncc1)c1ccccc1Nc1ccc(SC(F)F)cc1 | inconclusive: 22.4 µM [activator, single point] | –
CCOc1cccc(C(=O)NC(=S)Nc2cccc(C)c2)c1 | active: 20 µM | –
CCCc1nc2nc(C)c(NS(=O)(=O)c3ccc(CC(C)C)cc3)c(=O)n2[nH]1 | – | inactive: -9.02%
CCSc1ncc(Cl)c(C(=O)Nc2nc3ccc(S(C)(=O)=O)cc3s2)n1 | – | inactive: 4.2%
CSc1nc(-c2ccccc2)cn1-c1ccc(NC(C)=O)cc1 | inconclusive: 12.6 µM [activator, partial curve] | –
COc1ccccc1N1CCN(C(=O)CCCN2C(=O)c3cccc4cccc(c34)C2=O)CC1 | inconclusive: 25.1 µM [activator, single point] | –
CCOC(=O)CSc1nc2ccccc2c(=O)n1-c1ccc(C)cn1 | – | inactive: 16.2%
CC(C)(C)CNc1cc(N2CCOCC2)ccc1[N+](=O)[O-] | inconclusive: 17.8 µM [activator, partial curve, poor fit] | –
CC(=O)c1cccc(NC(=O)COC(=O)C2=COCCO2)c1 | – | inactive: 1.51%
O=C(O)c1ccccc1C(=O)Nc1ccc(Oc2ccc3ccccc3c2)cc1 | active: 22.4 µM | –
CCN1c2ccccc2-c2nc3ccccc3n2C1c1ccccn1 (centres undefined) | inconclusive: 15.8 µM [activator, single point] | –
O=CNc1cc(-c2ccccc2)cn2c(-c3ccc(F)c(Cl)c3)cnc12 | inconclusive: 35.5 µM [activator, single point] | –
COc1ccc(C(C(=O)NC2CCCC2)N(CCCO)C(=O)Cn2nnc(-c3ccc(C)o3)n2)cc1 (centres undefined) | – | inactive: -3.96%
CC(C)CNC(=O)c1ccccc1NC(=O)c1ccccc1N(C)S(=O)(=O)c1ccccc1 | – | inactive: -4.54%
Cc1ccc(C)c(CN2C(=O)c3ccccc3S(=O)(=O)c3ccc(C(=O)NCCC4=CCCCC4)cc32)c1 | – | inactive: 16.9%
O=C(Nc1ccc(Br)cc1)C1CCCN1S(=O)(=O)c1ccc(F)cc1 (centres undefined) | inconclusive: 25.1 µM [activator, partial curve] | –
CCOc1ccc(/C=C/c2nc(C#N)c(NCc3ccccc3)o2)cc1 | inconclusive: 17.8 µM [activator, single point] | –
COc1cc(/C=C/C(=O)O)cc(S(=O)(=O)Nc2ccc3nc(C)sc3c2)c1OC | inconclusive: 20 µM [activator, single point] | –
O=C(Nc1ccc(Cl)cc1)C1(S(=O)(=O)c2ccccc2)CC1 | inconclusive: 35.5 µM [activator, partial curve, poor fit] | –
Fc1ccc(-c2nnc(N3CCOCC3)c3ccccc23)cc1F | inconclusive: 11.2 µM [activator, partial curve, poor fit] | –
